This is one part of the list.
Legend:
HSkMC = human skeletal muscle cells; assay: cytotoxicity call (relative viability < 0.9); conditions: 10 µM
HepG2 = assay: cytotoxicity call (relative viability < 0.9); conditions: 10 µM
S. aureus RN4220 = assay: growth inhibition call (relative growth <= 0.2); conditions: 50 µM

C[C@@H]1CN([C@H](C)CO)C(=O)c2cc(C#CCN(C)C)cnc2O[C@@H]1CN(C)Cc1ccc(C(=O)O)cc1
inactive: cytotoxicity call (HSkMC) | cytotoxicity call (HepG2) | growth inhibition call (S. aureus RN4220)

CCCNC(=O)C[C@@H]1CC[C@H]2[C@@H](COc3ccc(NC(=O)c4ccc5c(c4)OCO5)cc3C(=O)N2C)O1
inactive: cytotoxicity call (HSkMC) | cytotoxicity call (HepG2) | growth inhibition call (S. aureus RN4220)

O=C(Cn1ccc([N+](=O)[O-])n1)Nc1cccnc1
inactive: cytotoxicity call (HSkMC) | cytotoxicity call (HepG2) | growth inhibition call (S. aureus RN4220)

C[C@H]1CCCCO[C@@H](CN(C)C(=O)c2ccccc2)[C@@H](C)CN([C@@H](C)CO)C(=O)c2cc(NC(=O)CCC(F)(F)F)ccc2O1
inactive: cytotoxicity call (HSkMC) | cytotoxicity call (HepG2) | growth inhibition call (S. aureus RN4220)

N[C@H]1CCOC2(CCCC2)C1
inactive: cytotoxicity call (HSkMC) | cytotoxicity call (HepG2) | growth inhibition call (S. aureus RN4220)

C[C@H](CO)N1C[C@H](C)[C@H](CN(C)Cc2ccncc2)Oc2ccc(NC(=O)Nc3ccc(C(F)(F)F)cc3)cc2C1=O
inactive: cytotoxicity call (HSkMC) | cytotoxicity call (HepG2) | growth inhibition call (S. aureus RN4220)

C[C@@H]1CCCCO[C@@H](CN(C)C(=O)C2CCCCC2)[C@H](C)CN([C@@H](C)CO)C(=O)c2cc(NC(=O)Nc3ccccc3)ccc2O1
inactive: cytotoxicity call (HSkMC) | cytotoxicity call (HepG2) | growth inhibition call (S. aureus RN4220)

C=CCOC(=O)[C@H]1[C@@H]2C(=O)O[C@@H](c3ccccc3)[C@@H](c3ccccc3)N2[C@@H](c2ccc(OCCOC(=O)[C@H]3C[C@H]4C(=O)N[C@@H](CC(C)C)C(=O)N4[C@H]3c3cccc(OCCO)c3)cc2)[C@]12C(=O)Nc1ccccc12
inactive: cytotoxicity call (HSkMC) | cytotoxicity call (HepG2) | growth inhibition call (S. aureus RN4220)

O=C(CN1CCOCC1)N[C@@H]1CC[C@H](CCn2cc(C3CCCC3)nn2)O[C@H]1CO
inactive: cytotoxicity call (HSkMC) | cytotoxicity call (HepG2) | growth inhibition call (S. aureus RN4220)

C[C@@H]1CCCCO[C@H](CN(C)C(=O)Nc2cccc3ccccc23)[C@@H](C)CN([C@H](C)CO)C(=O)c2cc(NS(=O)(=O)c3cn(C)cn3)ccc2O1
inactive: cytotoxicity call (HSkMC) | cytotoxicity call (HepG2) | growth inhibition call (S. aureus RN4220)

C=CCN1C[C@H](C(=O)O)CC1=O
inactive: cytotoxicity call (HSkMC) | cytotoxicity call (HepG2) | growth inhibition call (S. aureus RN4220)

C[C@@H]1CN([C@@H](C)CO)C(=O)c2cc(NC(=O)Nc3ccc(F)cc3)ccc2O[C@H]1CN(C)S(=O)(=O)c1cn(C)cn1
inactive: cytotoxicity call (HSkMC) | cytotoxicity call (HepG2) | growth inhibition call (S. aureus RN4220)

C[C@H](CO)N1C[C@H](C)[C@H](CN(C)C(=O)c2ccc3c(c2)OCO3)Oc2ncc(C#CCN(C)C)cc2C1=O
inactive: cytotoxicity call (HSkMC) | cytotoxicity call (HepG2) | growth inhibition call (S. aureus RN4220)

Source: the antibiotic and cytotoxicity screens of Wong et al. (2023)
